# The campaign covered roughly 280,000 compounds. About 100 (0.036%) were called active. The inconclusive results got no clear call from the source; some entries with a clear call stand among them for comparison. Calls come from the whole dose curve; as a rule, active = well fitted inhibition curve with a large enough effect in the signal ratio, with a control signal flat (not every such curve was filed as active); inconclusive = small, poorly fitted or top-dose-only effect, or effect the other way, or a change in a side signal; inactive = no such curve, though single readings can be large or run the other way; the % refers to the signal ratio. Where the call is inconclusive, the potency comes from a doubtful curve fit. A note “side channel” means that the fit belongs to a control or component signal, not to the main read-out.
# Target: Muscleblind-like protein 1 (Homo sapiens) (UniProt Q9NR56)
# Assay: qHTS Assay for Inhibitors of MBNL1-poly(CUG) RNA binding
# Conditions: TR-FRET MBNL1-His/biotin-(CUG)12 binding, 665/545 ratio; activity change, negative = inhibition: at 57.5 µM (top of the series)
# Outline: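 His-tagged MBNL1 binding to biotinylated (CUG)12 RNA was measured by TR-FRET using terbium anti-His antibody (0.055 ng/ul final) and streptavidin-XL665 (5 nM final). Compounds were titrated 92 nM to 58 uM; 60 min at room temperature.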
# % is set by controls: 0 for no effect and ±100 for the full control effect; potency is the fitted concentration of half-maximal effect; tags give direction and shape of the fitted curve or compound fluorescence and quenching.
# Chain of UniProt Q9NR56 (Q9NR56 whole entry, looked up): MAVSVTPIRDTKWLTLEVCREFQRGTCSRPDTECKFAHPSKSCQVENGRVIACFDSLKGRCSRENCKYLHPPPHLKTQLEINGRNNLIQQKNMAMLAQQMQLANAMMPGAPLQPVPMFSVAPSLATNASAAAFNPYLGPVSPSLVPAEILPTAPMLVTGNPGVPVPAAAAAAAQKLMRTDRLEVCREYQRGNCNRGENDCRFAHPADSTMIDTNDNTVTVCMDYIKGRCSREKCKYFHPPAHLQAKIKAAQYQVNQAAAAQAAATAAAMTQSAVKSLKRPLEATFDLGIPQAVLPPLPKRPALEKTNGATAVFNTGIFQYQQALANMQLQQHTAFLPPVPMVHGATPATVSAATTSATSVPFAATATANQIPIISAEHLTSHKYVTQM
Structure (SMILES),Potency,"activity change, negative = inhibition"
Cc1cc(C(=O)NC2CCCc3ccccc32)ccc1[N+](=O)[O-] (configuration not stated),"inconclusive: 15.8 µM [quencher, side channel, partial curve]",
COc1ccc(CNC(=O)C2CC(c3cccc([N+](=O)[O-])c3)=NO2)cc1 (configuration not stated),"inconclusive: 15.8 µM [quencher, side channel, partial curve]",
Cc1ccccc1NCC(=O)N/N=C/c1c[nH]c2ccccc12,,inactive: -4.21%
COc1ccc(CCNC2=C(Cl)C(=O)N(Cc3ccccc3)C2=O)cc1OC,"inconclusive: 20 µM [quencher, side channel, partial curve]",
O=C(Nc1ccc2oc(-c3ccccc3F)nc2c1)c1ccc2c(c1)OCCO2,,inactive: -0.0189%
O=C(COC(=O)c1ccccc1[N+](=O)[O-])Nc1cc(S(=O)(=O)N2CCOCC2)ccc1N1CCCC1,"inconclusive: 17.8 µM [quencher, side channel, partial curve]",
COc1ccc2c(c1OC)C(=O)OC2CC(=O)c1ccc2c(c1)OCO2 (configuration not stated),,inconclusive: 23.7% [phenotype inactive]
Cc1cccc(-n2ncc3c(NCc4ccccc4)ncnc32)c1,"inconclusive: 0.126 µM [quencher, side channel, full curve, poor fit]",
Cc1cccc(C)c1NC(=O)CCS(=O)(=O)c1cccc2nsnc12,"inconclusive: 14.1 µM [quencher, partial curve]",
COc1cc(/C=C2\SC(=O)NC2=O)ccc1Oc1ccc([N+](=O)[O-])cn1,"inconclusive: 25.1 µM [quencher, single point]",
CCOC(=O)Cn1cncc1-c1ccc([N+](=O)[O-])cc1,"inconclusive: 12.6 µM [quencher, side channel, partial curve]",
O=C(CCCN1C(=O)/C(=C\c2ccccc2)SC1=S)Nc1ccc(C(=O)O)cc1,"inconclusive: 3.55 µM [quencher, single point]",
Cn1c(=O)c2c(ncn2CC(=O)N2CCN(c3ccc([N+](=O)[O-])cc3)CC2)n(C)c1=O,"inconclusive: 17.8 µM [quencher, side channel, partial curve]",
CCCC1=NN(c2ccc([N+](=O)[O-])cc2)C(=O)/C1=C\N(C)C,"inconclusive: 22.4 µM [quencher, side channel, single point]",
O=C(O)c1ccc(NC(=S)NC(=O)c2ccc(-c3ccccc3)cc2)cc1,,inactive: -10.5%
CCN(CC)CCOC(=O)c1ccc(NC(=O)CCCN2C(=O)S/C(=C/c3ccc(OC)cc3)C2=S)cc1,"inconclusive: 14.1 µM [quencher, side channel, partial curve]",
CC(=O)/C(N=Nc1ccc2c(c1)OCO2)=C(\C)O,"inconclusive: 5.62 µM [quencher, side channel, partial curve]",
Cc1cc(C(=O)COC(=O)c2nccnc2N)c(C)n1C,"inconclusive: 12.6 µM [quencher, side channel, partial curve]",
O=C(N/N=C/c1ccc([N+](=O)[O-])cc1)c1cc(C2CC2)nc2ccccc12,"inconclusive: 11.2 µM [quencher, partial curve]",

Structure (SMILES),Potency,"activity change, negative = inhibition"
CCN1C(=O)/C(=C/c2ccc(C)s2)NC1=S,"inconclusive: 25.1 µM [quencher, side channel, partial curve]",
CC(=O)c1c(C)nc2ccc([N+](=O)[O-])cc2c1-c1ccccc1,"inconclusive: 14.1 µM [quencher, side channel, partial curve]",
Cc1ccc(Cc2cnc(NC(=O)/C(C#N)=C/c3ccc(-c4ccccc4[N+](=O)[O-])o3)s2)cc1,,inactive: -4.61%
O=C(NCCO)c1ccc(-c2nnc(Nc3ccc(O)cc3)c3ccccc23)cc1,"inconclusive: 0.224 µM [quencher, side channel, full curve]",
CCOC(=O)c1cc2c(=O)n3ccccc3nc2n(CC2CCCO2)c1=NC(C)=O (configuration not stated),"inconclusive: 7.08 µM [quencher, side channel, partial curve]",
Cc1noc(NS(=O)(=O)c2ccc(N/C=C/C(=O)c3ccc(F)cc3)cc2)c1C,"inconclusive: 35.5 µM [quencher, side channel, single point]",
O=C(C1CC1)N1CCc2cc(Br)cc(S(=O)(=O)N3CCOCC3)c21,,inconclusive: 5.77% [quencher]
COc1ccc(C2CC(c3ccccc3)=NN2c2ccc(S(N)(=O)=O)cc2)cc1OC (configuration not stated),"inconclusive: 44.7 µM [quencher, side channel, partial curve, poor fit]",
OCCNc1nc(SCc2ccccc2)nc2sc3c(c12)CCC3,,inactive: -13.5%
Cc1cc(=O)[nH]c(N/N=C/c2ccc(-c3ccc([N+](=O)[O-])cc3)o2)n1,"inconclusive: 6.31 µM [quencher, side channel, partial curve]",
[O-][n+]1onc2c3ccnnc3ccc21,"inconclusive: 14.1 µM [quencher, side channel, partial curve]",
Cc1ccc2nc(NC(=O)CN3C(=O)C4CC=CCC4C3=O)sc2c1 (configuration not stated),"inconclusive: 39.8 µM [quencher, side channel, single point]",
CC(=O)Oc1c2occc2cc2ccc(=O)oc12,"inconclusive: 15.8 µM [quencher, side channel, partial curve]",
O=C(Nc1cccc(Br)c1)c1ccc(CN2CCc3ccccc3C2)cc1,,inactive: -13.1%
NC(=O)C1(N2CCCCC2)CCN(C(=O)c2cccn3c(=O)c4cc(Cl)ccc4nc23)CC1,"inconclusive: 28.2 µM [quencher, side channel, single point]",
N#C/C(=C/c1ccco1)C(N)=S,"inconclusive: 7.08 µM [quencher, side channel, partial curve]",
Cc1cc(NC(=O)c2nn(C)c(C)c2[N+](=O)[O-])no1,"inconclusive: 39.8 µM [quencher, side channel, single point]",
CN(/C(=N/S(=O)(=O)c1cccs1)c1ccccc1)c1ccccc1,"inconclusive: 0.282 µM [fluorescent, side channel, partial curve]",
